Test results as given in US20250066451A1 (SWEDISH ORPHAN BIOVITRUM AB PUBL, published 2025).

T1: Human IL-1R-I-Fc (Creative BioMart cat. no. IL1RI-771H) (human, UniProt P14778 18-332, limits assumed)
T1 construct: bought protein; also called hIL-1R-I-Fc; hIL-1RI-Fc
T1 sequence (looked up): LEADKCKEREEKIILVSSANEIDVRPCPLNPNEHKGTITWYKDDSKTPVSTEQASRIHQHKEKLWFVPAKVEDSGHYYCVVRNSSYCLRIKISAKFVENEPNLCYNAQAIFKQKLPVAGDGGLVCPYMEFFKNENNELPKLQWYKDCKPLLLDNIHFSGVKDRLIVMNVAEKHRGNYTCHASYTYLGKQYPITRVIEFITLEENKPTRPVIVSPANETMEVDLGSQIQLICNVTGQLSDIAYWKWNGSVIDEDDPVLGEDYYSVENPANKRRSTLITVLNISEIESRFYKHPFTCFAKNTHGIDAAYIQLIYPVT


biological target: T1, Human IL-1R-I-Fc (Creative BioMart cat. …); assay: ELISA, hIL-1R-I-Fc titration on Z-ABD

Row | EC50 [nM] | Binder
1 | 0.21 | Z16377-ABD (designed binder) AQHDEALEVDAKYAKETERAQMEIFYLPNLTRKQYTAFIRKLLDDPSQSSELLSEAKKLNDSQAPKVDYVLAEAKVLANRELDKYGVSDYYKNLINNAKTVEGVKALIDEILAALPYVPG
2 | 0.29 | Z16388-ABD (designed binder) AQHDEALEVDAKYAKEHEDAYMEIYALPNLTRKQYTAFIRKLLDDPSQSSELLSEAKKLNDSQAPKVDYVLAEAKVLANRELDKYGVSDYYKNLINNAKTVEGVKALIDEILAALPYVPG
3 | 0.2 | Z16363-ABD (designed binder) AQHDEALEVDAKYAKEVEQAQMEIFRLPNLTRKQYTAFIRKLLDDPSQSSELLSEAKKLNDSQAPKVDYVLAEAKVLANRELDKYGVSDYYKNLINNAKTVEGVKALIDEILAALPYVPG
4 | 0.27 | Z16688-ABD (designed binder) AQHDEALEVDAKYAKEVKDAQFEIFALPNLTRKQYTAFIRKLFDDPSQSSELLSEAKKLNDSQAPKVDYVLAEAKVLANRELDKYGVSDYYKNLINNAKTVEGVKALIDEILAALPYVPG
5 | 0.45 | Z16329-ABD (designed binder) AQHDEALEVDAKYAKEVEDAYFEIYKLPNLTRKQYTAFIRKLLDDPSQSSELLSEAKKLNDSQAPKVDYVLAEAKVLANRELDKYGVSDYYKNLINNAKTVEGVKALIDEILAALPYVPG
6 | 0.23 | Z16681-ABD (designed binder) AQHDEALEVDAKYAKEVEYAYYEIFKLPNLTRKQYTAFIRKLLDDPSQSSELLSEAKKLNDSQAPKVDYVLAEAKVLANRELDKYGVSDYYKNLINNAKTVEGVKALIDEILAALPYVPG
7 | 0.17 | Z16341-ABD (designed binder) AQHDEALEVDAKYAKELEAAQMEIFALPNLTRRQYTAFIRKLLDDPSQSSELLSEAKKLNDSQAPKVDYVLAEAKVLANRELDKYGVSDYYKNLINNAKTVEGVKALIDEILAALPYVPG
8 | 0.36 | Z16405-ABD (designed binder) AQHDEALEVDAKYAKETEDAYFEIYHLPNLTRKQYTAFIRKLLDDPSQSSELLSEAKKLNDSQAPKVDYVLAEAKVLANRELDKYGVSDYYKNLINNAKTVEGVKALIDEILAALPYVPG
9 | 0.2 | Z16378-ABD (designed binder) AQHDEALEVDAKYAKEVESAYFEIFKLPNLTRKQYTAFIRKLLDDPSQSSELLSEAKKLNDSQAPKVDYVLAEAKVLANRELDKYGVSDYYKNLINNAKTVEGVKALIDEILAALPYVPG
10 | 0.24 | Z16678-ABD (designed binder) AQHDEALEVDAKYAKEVEVAYFEIYALPNLTRKQYTAFIRKLLDDPSQSSELLSEAKKLNDSQAPKVDYVLAEAKVLANRELDKYGVSDYYKNLINNAKTVEGVKALIDEILAALPYVPG

Further lines, the binder ahead of its results:

Row | Binder | EC50 [nM]
11 | Z16236-ABD (designed binder) AQHDEALEVDAKYAKETEEAQMEIFNLPNLTRKQYTAFIRKLLDDPSQSSELLSEAKKLNDSQAPKVDYVLAEAKVLANRELDKYGVSDYYKNLINNAKTVEGVKALIDEILAALPYVPG | 0.24
12 | Z16241-ABD (designed binder) AQHDEALEVDAKYAKEVEDAYWEIYALPNLTRKQYTAFIRKLLDDPSQSSELLSEAKKLNDSQAPKVDYVLAEAKVLANRELDKYGVSDYYKNLINNAKTVEGVKALIDEILAALPYVPG | 0.49
13 | Z16321-ABD (designed binder) AQHDEALEVDAKYAKEIEEAQMEIYTLPNLTRKQYTAFIRKLLDDPSQSSELLSEAKKLNDSQAPKVDYVLAEAKVLANRELDKYGVSDYYKNLINNAKTVEGVKALIDEILAALPYVPG | 0.27
14 | Z16243-ABD (designed binder) AQHDEALEVDAKYAKEVEEAYMEIYQLPNLTRKQYTAFIRKLLDDPSQSSELLSEAKKLNDSQAPKVDYVLAEAKVLANRELDKYGVSDYYKNLINNAKTVEGVKALIDEILAALPYVPG | 0.22
15 | Z16305-ABD (designed binder) AQHDEALEVDAKYAKEVESAYFEIYSLPNLTRKQYTAFIRKLLDDPSQSSELLSEAKKLNDSQAPKVDYVLAEAKVLANRELDKYGVSDYYKNLINNAKTVEGVKALIDEILAALPYVPG | 0.22
16 | Z16277-ABD (designed binder) AQHDEALEVDAKYAKEVEDAYYEIYELPNLTRKQYTAFIRKLLDDPSQSSELLSEAKKLNDSQAPKVDYVLAEAKVLANRELDKYGVSDYYKNLINNAKTVEGVKALIDEILAALPYVPG | 0.26
17 | Z16301-ABD (designed binder) AQHDEALEVDAKYAKEIEAAQMEIFELPNLTRKQYTAFIRKLLDDPSQSSELLSEAKKLNDSQAPKVDYVLAEAKVLANRELDKYGVSDYYKNLINNAKTVEGVKALIDEILAALPYVPG | 0.22
18 | Z16255-ABD (designed binder) AQHDEALEVDAKYAKETEDAYMEIYALPNLTRKQYTAFIRKLLDDPSQSSELLSEAKKLNDSQAPKVDYVLAEAKVLANRELDKYGVSDYYKNLINNAKTVEGVKALIDEILAALPYVPG | 0.17
19 | Z16246-ABD (designed binder) AQHDEALEVDAKYAKEVEDAYMEIFKLPNLTRKQYTAFIRKLLDDPSQSSELLSEAKKLNDSQAPKVDYVLAEAKVLANRELDKYGVSDYYKNLINNAKTVEGVKALIDEILAALPYVPG | 0.39
20 | Z16312-ABD (designed binder) AQHDEALEVDAKYAKEVEKAQMEIFDLPNLTRKQYTAFIRKLLDDPSQSSELLSEAKKLNDSQAPKVDYVLAEAKVLANRELDKYGVSDYYKNLINNAKTVEGVKALIDEILAALPYVPG | 0.24
21 | Z16245-ABD (designed binder) AQHDEALEVDAKYAKEVETAYFEIFALPNLTRKQYTAFIRKLLDDPSQSSELLSEAKKLNDSQAPKVDYVLAEAKVLANRELDKYGVSDYYKNLINNAKTVEGVKALIDEILAALPYVPG | 0.22
22 | Z16319-ABD (designed binder) AQHDEALEVDAKYAKEIEEAQMEIFSLPNLTRKQYTAFIRKLFDDPSQSSELLSEAKKLNDSQAPKVDYVLAEAKVLANRELDKYGVSDYYKNLINNAKTVEGVKALIDEILAALPYVPG | 0.3
23 | Z16302-ABD (designed binder) AQHDEALEVDAKYAKEVETAYFEIYNLPNLTRKQYTAFIRKLLDDPSQSSELLSEAKKLNDSQAPKVDYVLAEAKVLANRELDKYGVSDYYKNLINNAKTVEGVKALIDEILAALPYVPG | 0.28
24 | Z16264-ABD (designed binder) AQHDEALEVDAKYAKEVEVAYFEIFALPNLTRKQYTAFIRKLLDDPSQSSELLSEAKKLNDSQAPKVDYVLAEAKVLANRELDKYGVSDYYKNLINNAKTVEGVKALIDEILAALPYVPG | 0.3
25 | Z16263-ABD (designed binder) AQHDEALEVDAKYAKEAEKAYWEIYALPNLTRKQYTAFIRKLLDDPSQSSELLSEAKKLNDSQAPKVDYVLAEAKVLANRELDKYGVSDYYKNLINNAKTVEGVKALIDEILAALPYVPG | 0.26
